# According to the supplement of paper PMC8728848:
# Some of the results follow.
# Tests used:
# Experiment in all cases: glycan array binding signal (z-score within array); higher = stronger binding
# Conditions in all cases: glycan notation: IUPAC condensed, linker removed
# [1] = biological target: Neu5Ac(a2-3)Gal(b1-3)[Fuc(a1-4)]GlcNAc
# Outline: (§1)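 Glycan array data were curated from 3228 arrays in the Consortium for Functional Glycomics database and kept only where the protein sequence was available. Glycan names were converted to IUPAC-condensed notation, and columns mapping to the same glycan were averaged. The binding signal is a within-array Z-score, averaged across arrays of the same protein sequence at different concentrations or buffers and across linkers. Negative Z-scores can be read as non-binding.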
# [2] = biological target: Neu5Ac(a2-3)Gal(b1-3)[Fuc(a1-4)]GlcNAc(b1-3)Gal(b1-3)[Fuc(a1-4)]GlcNAc
# Outline: as §1
# [3] = biological target: Neu5Ac(a2-3)Gal(b1-3)[Fuc(a1-4)]GlcNAc(b1-3)Gal(b1-4)[Fuc(a1-3)]GlcNAc
# Outline: as §1
# [4] = biological target: Neu5Ac(a2-3)Gal(b1-3)[GlcNAc(b1-6)]GalNAc
# Outline: as §1
# [5] = biological target: Neu5Ac(a2-3)Gal(b1-3)[Neu5Ac(a2-6)]GalNAc
# Outline: as §1
# [6] = biological target: Neu5Ac(a2-3)Gal(b1-3)[Neu5Ac(a2-6)]GlcNAc(b1-3)[Fuc(a1-3)[Gal(b1-4)]GlcNAc(b1-6)]Gal(b1-4)Glc
# Outline: as §1
# [7] = biological target: Neu5Ac(a2-3)Gal(b1-3)]Neu5Ac(a2-3)Gal(b1-4)]GlcNAc
# Outline: as §1
# [8] = biological target: Neu5Ac(a2-3)Gal(b1-4)Glc
# Outline: as §1
# [9] = biological target: Neu5Ac(a2-3)Gal(b1-4)GlcNAc
# Outline: as §1
# [10] = biological target: Neu5Ac(a2-3)Gal(b1-4)GlcNAc(b1-2)Man
# Outline: as §1
# [11] = biological target: Neu5Ac(a2-3)Gal(b1-4)GlcNAc(b1-2)Man(a1-3)[GlcNAc(b1-4)][Neu5Ac(a2-3)Gal(b1-4)GlcNAc(b1-2)Man(a1-6)]Man(b1-4)GlcNAc(b1-4)GlcNAc
# Outline: as §1
# [12] = biological target: Neu5Ac(a2-3)Gal(b1-4)GlcNAc(b1-2)Man(a1-3)[Neu5Ac(a2-3)Gal(b1-4)GlcNAc(b1-2)Man(a1-6)]Man(b1-4)GlcNAc(b1-4)GlcNAc
# Outline: as §1
# [13] = biological target: Neu5Ac(a2-3)Gal(b1-4)GlcNAc(b1-2)Man(a1-3)[Neu5Ac(a2-3)Gal(b1-4)GlcNAc(b1-2)Man(a1-6)]Man(b1-4)GlcNAc(b1-4)[Fuc(a1-6)]GlcNAc
# Outline: as §1
# [14] = biological target: Neu5Ac(a2-3)Gal(b1-4)GlcNAc(b1-2)Man(a1-3)[Neu5Ac(a2-6)Gal(b1-4)GlcNAc(b1-2)Man(a1-6)]Man(b1-4)GlcNAc(b1-4)GlcNAc
# Outline: as §1
# [15] = biological target: Neu5Ac(a2-3)Gal(b1-4)GlcNAc(b1-2)[Neu5Ac(a2-3)Gal(b1-4)GlcNAc(b1-4)]Man(a1-3)[GlcNAc(b1-4)][Neu5Ac(a2-3)Gal(b1-4)GlcNAc(b1-2)[Neu5Ac(a2-3)Gal(b1-4)GlcNAc(b1-6)]Man(a1-6)]Man(b1-4)GlcNAc(b1-4)GlcNAc
# Outline: as §1
# [16] = biological target: Neu5Ac(a2-3)Gal(b1-4)GlcNAc(b1-2)[Neu5Ac(a2-3)Gal(b1-4)GlcNAc(b1-4)]Man(a1-3)[GlcNAc(b1-4)][Neu5Ac(a2-3)Gal(b1-4)GlcNAc(b1-4)Man(a1-6)]Man(b1-4)GlcNAc(b1-4)GlcNAc
# Outline: as §1
# [17] = biological target: Neu5Ac(a2-3)Gal(b1-4)GlcNAc(b1-2)[Neu5Ac(a2-3)Gal(b1-4)GlcNAc(b1-6)]Man(a1-6)[Neu5Ac(a2-3)Gal(b1-4)GlcNAc(b1-2)Man(a1-3)]Man(b1-4)GlcNAc(b1-4)GlcNAc
# Outline: as §1
# [18] = biological target: Neu5Ac(a2-3)Gal(b1-4)GlcNAc(b1-2)[Neu5Ac(a2-3)Gal(b1-4)GlcNAc(b1-6)]Man(a1-6)[Neu5Ac(a2-3)Gal(b1-4)GlcNAc(b1-2)Man(a1-3)][GlcNAc(b1-4)]Man(b1-4)GlcNAc(b1-4)GlcNAc
# Outline: as §1
# [19] = biological target: Neu5Ac(a2-3)Gal(b1-4)GlcNAc(b1-3)Gal
# Outline: as §1
# [20] = biological target: Neu5Ac(a2-3)Gal(b1-4)GlcNAc(b1-3)Gal(b1-3)GlcNAc
# Outline: as §1
# [21] = biological target: Neu5Ac(a2-3)Gal(b1-4)GlcNAc(b1-3)Gal(b1-4)GlcNAc
# Outline: as §1
# [22] = biological target: Neu5Ac(a2-3)Gal(b1-4)GlcNAc(b1-3)Gal(b1-4)GlcNAc(b1-2)Man(a1-3)[Neu5Ac(a2-3)Gal(b1-4)GlcNAc(b1-3)Gal(b1-4)GlcNAc(b1-2)Man(a1-6)]Man(b1-4)GlcNAc(b1-4)GlcNAc
# Outline: as §1
# [23] = biological target: Neu5Ac(a2-3)Gal(b1-4)GlcNAc(b1-3)Gal(b1-4)GlcNAc(b1-3)Gal(b1-4)GlcNAc
# Outline: as §1
# [24] = biological target: Neu5Ac(a2-3)Gal(b1-4)GlcNAc(b1-3)Gal(b1-4)GlcNAc(b1-3)Gal(b1-4)GlcNAc(b1-2)Man(a1-3)[Neu5Ac(a2-3)Gal(b1-4)GlcNAc(b1-3)Gal(b1-4)GlcNAc(b1-3)Gal(b1-4)GlcNAc(b1-2)Man(a1-6)]GalNAc
# Outline: as §1
# [25] = biological target: Neu5Ac(a2-3)Gal(b1-4)GlcNAc(b1-3)Gal(b1-4)GlcNAc(b1-3)GalNAc
# Outline: as §1
# [26] = biological target: Neu5Ac(a2-3)Gal(b1-4)GlcNAc(b1-3)Gal(b1-4)GlcNAc(b1-3)[Neu5Ac(a2-3)Gal(b1-4)GlcNAc(b1-3)Gal(b1-4)GlcNAc(b1-6)]GalNAc
# Outline: as §1
# [27] = biological target: Neu5Ac(a2-3)Gal(b1-4)GlcNAc(b1-3)Gal(b1-4)GlcNAc(b1-6)[Gal(b1-3)]GalNAc
# Outline: as §1
# [28] = biological target: Neu5Ac(a2-3)Gal(b1-4)GlcNAc(b1-3)Gal(b1-4)[Fuc(a1-3)]GlcNAc
# Outline: as §1
# [29] = biological target: Neu5Ac(a2-3)Gal(b1-4)GlcNAc(b1-3)GalNAc
# Outline: as §1
# [30] = biological target: Neu5Ac(a2-3)Gal(b1-4)GlcNAc(b1-3)[Neu5Ac(a2-3)Gal(b1-4)GlcNAc(b1-6)]GalNAc
# Outline: as §1
binder,measurement,setting,value
"MPA (Maclura pomifera), P18674 (protein) GVTFDDGAYTGIREINFEYNSETAIGGLRVTYDLNGMPFVAEDHKSFITGFKPVKISLEFPSEYIVEVSGYVGKVEGYTVIRSLTFKTNKQTYGPYGVTNGTPFSLPIENGLIVGFKGSIGYWLDYFSIYLSL",glycan array binding signal (z-score),[1],-0.234
same,glycan array binding signal (z-score),[2],-0.121
same,glycan array binding signal (z-score),[3],-0.08
same,glycan array binding signal (z-score),[4],-0.297
same,glycan array binding signal (z-score),[5],0.304
same,glycan array binding signal (z-score),[6],-0.233
same,glycan array binding signal (z-score),[7],-0.167
same,glycan array binding signal (z-score),[8],-0.064
same,glycan array binding signal (z-score),[9],-0.212
same,glycan array binding signal (z-score),[10],-0.076
same,glycan array binding signal (z-score),[11],-0.414
same,glycan array binding signal (z-score),[12],-0.136
same,glycan array binding signal (z-score),[13],-0.25
same,glycan array binding signal (z-score),[14],-0.284
same,glycan array binding signal (z-score),[15],-0.101
same,glycan array binding signal (z-score),[16],-0.281
same,glycan array binding signal (z-score),[17],-0.223
same,glycan array binding signal (z-score),[18],-0.334
same,glycan array binding signal (z-score),[19],-0.379
same,glycan array binding signal (z-score),[20],-0.323
same,glycan array binding signal (z-score),[21],-0.214
same,glycan array binding signal (z-score),[22],1.94
same,glycan array binding signal (z-score),[23],-0.222
same,glycan array binding signal (z-score),[24],3.56
same,glycan array binding signal (z-score),[25],-0.253
same,glycan array binding signal (z-score),[26],0.253
same,glycan array binding signal (z-score),[27],-0.045
same,glycan array binding signal (z-score),[28],-0.193
same,glycan array binding signal (z-score),[29],-0.215
same,glycan array binding signal (z-score),[30],-0.249
